Some of the results follow. Values were computed here from the reads of four pooled replicates and scatter widely.
target: T1, Pho4 (S. cerevisiae) (UniProt P07270); experiment: relative binding free energy (BET-seq); higher = weaker binding; settings: reference: library average
T1 sequence: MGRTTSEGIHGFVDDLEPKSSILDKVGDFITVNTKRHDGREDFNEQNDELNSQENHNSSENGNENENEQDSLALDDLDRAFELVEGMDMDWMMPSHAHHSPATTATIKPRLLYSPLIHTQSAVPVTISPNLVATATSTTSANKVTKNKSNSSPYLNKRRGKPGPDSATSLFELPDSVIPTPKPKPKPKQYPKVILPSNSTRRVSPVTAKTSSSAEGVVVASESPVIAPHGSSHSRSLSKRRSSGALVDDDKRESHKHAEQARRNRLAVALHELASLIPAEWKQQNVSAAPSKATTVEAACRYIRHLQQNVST

Relative binding free energy, 2.22 kJ/mol:
TGGTTCACGTGAAAGG

Relative binding free energy, 0.711 kJ/mol:
TTATGCACGTGTAAGT
TCTCTCACGTGTGTGG
GTATCCACGTGGTTTA
TTAATCACGTGCGAGG
ATGTTCACGTGGATAG
TTTTACACGTGATTTC
GTGGACACGTGAGGAT

Relative binding free energy, 0.837 kJ/mol:
AGAATCACGTGTAATG
GTTGTCACGTGACAGT
ATAGTCACGTGTCGGG

Relative binding free energy, -0.502 kJ/mol:
TTAAACACGTGGTCGG
CTCGGCACGTGGTTTT

Relative binding free energy, 1.38 kJ/mol:
AGTTTCACGTGCAATT

Relative binding free energy, 1.42 kJ/mol:
TTTTTCACGTGAAGTT
GGGTTCACGTGAGCGC
AATTTCACGTGGTTGG

Relative binding free energy, -0.251 kJ/mol:
AAAGGCACGTGTTTGT
TCGGGCACGTGTGTGT

Relative binding free energy, 1.84 kJ/mol:
GGGTTCACGTGATTTG

Relative binding free energy, 0.502 kJ/mol:
ATTTACACGTGTTACT
CTAGTCACGTGCGTTT
ATGTGCACGTGGAAGC

Relative binding free energy, -0.586 kJ/mol:
TGTTCCACGTGGCTGG
GTTGGCACGTGTCCTG
GTGTACACGTGCATGT
TCTGGCACGTGGGTTA

Relative binding free energy, -1.13 kJ/mol:
CTGGGCACGTGGGTTC

Relative binding free energy, -0.418 kJ/mol:
TATGACACGTGGGCAG
AGTGGCACGTGGATTC
AGGAACACGTGGGCGT
AACTGCACGTGTTGTT

Relative binding free energy, 0.126 kJ/mol:
TATTGCACGTGATGCA
TACTGCACGTGTAATG
TGGGTCACGTGGGCTC
ATTGTCACGTGGTTAT
ACAGACACGTGGTGTT
TTATACACGTGGTTTT
GTTCGCACGTGTGGTC
TGATACACGTGCTGTT

Relative binding free energy, 0.0837 kJ/mol:
GGTTCCACGTGGGTTA
TTTCACACGTGGCGTG

Relative binding free energy, -0.879 kJ/mol:
CGGAGCACGTGTGTAG
AGGCCCACGTGGGTTG
GCTAGCACGTGGGGGT
ATACGCACGTGGGTAT

Relative binding free energy, 1 kJ/mol:
TGTTGCACGTGAATGC
TATTTCACGTGGTCGG

Relative binding free energy, 0.962 kJ/mol:
CTGTTCACGTGTTCGT
AATCTCACGTGGTGGG
GTGTGCACGTGAAGGA

Relative binding free energy, 0.251 kJ/mol:
GTAGGCACGTGACGGA
TCATCCACGTGTTGGT
GCTGGCACGTGTGTTA
ATGATCACGTGTTTGG

Relative binding free energy, -0.669 kJ/mol:
ATATACACGTGGTCGT
TTCTGCACGTGGGATG
GTGACCACGTGCGGGG
AAAAGCACGTGGTAGT

Relative binding free energy, 2.05 kJ/mol:
GCGCTCACGTGATGTT

Relative binding free energy, 0.544 kJ/mol:
TGTATCACGTGCGAGG
GTTTGCACGTGTTTTG
GTTTGCACGTGTGATG

Relative binding free energy, 1.21 kJ/mol:
GTGTTCACGTGCAGGT
GTGTTCACGTGGTGGT
TCGTTCACGTGGATGG
TGTTGCACGTGAGTGA

Relative binding free energy, -0.0418 kJ/mol:
CTTATCACGTGGGTTG
TATGTCACGTGCAGGT
GATGGCACGTGCTGTT
TTTATCACGTGGGCAG
GTGGGCACGTGCTAGA

Relative binding free energy, -0.46 kJ/mol:
GGAGGCACGTGGGTGG
AGTAACACGTGTTTAT

Relative binding free energy, -0.837 kJ/mol:
GGGCGCACGTGGGGCG

Relative binding free energy, 0.879 kJ/mol:
TATTACACGTGATATG
TTTTTCACGTGCATGT

Relative binding free energy, -1.42 kJ/mol:
TTTGGCACGTGGTCAA

Relative binding free energy, -0.0837 kJ/mol:
AATAGCACGTGTTGAT
CTTGGCACGTGTAGGA
ATGATCACGTGGGGCT
GTAGGCACGTGATGCT
GTTCGCACGTGTGTCG
CATAGCACGTGGGAAG

Relative binding free energy, 0.628 kJ/mol:
TGAATCACGTGTGTCG
TTAGTCACGTGATCTT
GTCCTCACGTGGTGTT
AGTTTCACGTGGGCTA
AGCGTCACGTGTGAGG
GGTATCACGTGGGGAG

Relative binding free energy, -0.377 kJ/mol:
AGTAGCACGTGGGGAC
CGGGCCACGTGCGGTT
TGTAGCACGTGTTGGA
GTATACACGTGTTTAG

Relative binding free energy, 0.92 kJ/mol:
ATGGGCACGTGAGTAA
TGTGGCACGTGAGTTC
TTATGCACGTGAGTCT
GGGATCACGTGTTGAT
TTCTTCACGTGTTTTA
AGTGTCACGTGAATAG
TGTTTCACGTGACTTG

Relative binding free energy, 1.05 kJ/mol:
TAAGGCACGTGAGTGC

Relative binding free energy, -0.753 kJ/mol:
TGTAGCACGTGCTTAT
TTAGCCACGTGGTGAG

Relative binding free energy, 1.09 kJ/mol:
AGTTACACGTGATCAG
CGGTTCACGTGCGTAT
GTATTCACGTGTTTAA
TAGGTCACGTGTCAAG
TATTTCACGTGGATGT
TAAATCACGTGAGGGG

Relative binding free energy, 2.01 kJ/mol:
GGGCTCACGTGATGAT

Relative binding free energy, 1.46 kJ/mol:
GGTTGCACGTGATGGC

Relative binding free energy, 1.13 kJ/mol:
GAATTCACGTGGTGTT
ATGTTCACGTGATGCG
GGTGTCACGTGAATAA
TTTTTCACGTGTGCGG
AGTGTCACGTGGAAAA
TGGTTCACGTGTACGA
GTTTTCACGTGCGGAG

Relative binding free energy, 0.335 kJ/mol:
GGTCTCACGTGGCGTG
GATGGCACGTGTGTTA
GGGCGCACGTGATTGT
TATTACACGTGCATGG
TGAGTCACGTGCTGTG
TTGCTCACGTGGATGG

Relative binding free energy, -0.795 kJ/mol:
TAGGGCACGTGCGTAA
GTGAGCACGTGGTCAG

Relative binding free energy, -0.962 kJ/mol:
TAAGGCACGTGGGCTT
CTGGGCACGTGGGGAG
ATGCGCACGTGCGGTG

Relative binding free energy, -0.544 kJ/mol:
TATAGCACGTGGTAAT

Relative binding free energy, 1.3 kJ/mol:
GAAGTCACGTGAGGAT
GGCATCACGTGTGGGC
GGGAACACGTGAATTG
GGATTCACGTGTGTAA
AGATTCACGTGATCGG

Relative binding free energy, -0.126 kJ/mol:
AAGTGCACGTGTAGTT
GGTTGCACGTGCTGAG
ACGGACACGTGTGGGG
GGGTGCACGTGGCTTG

Relative binding free energy, 1.67 kJ/mol:
TGTAACACGTGAGATT

Relative binding free energy, 0.418 kJ/mol:
GGGAGCACGTGTTGTC
GGGATCACGTGGGGAT

Relative binding free energy, 0.377 kJ/mol:
TAGGGCACGTGAGGTC
GATAACACGTGTGGGC
CGGGGCACGTGAGTTT
GAGGGCACGTGGAAGC
ATGTACACGTGTGGCG

Relative binding free energy, 0.167 kJ/mol:
ATAGTCACGTGGTCAA
TTAAACACGTGTCTGG
CGTATCACGTGGGTTC

Relative binding free energy, 1.34 kJ/mol:
TAAGTCACGTGTGAGA

Relative binding free energy, -0.335 kJ/mol:
TATGACACGTGTCGTG
TAGTACACGTGTTTAG
TCTTGCACGTGGTGTA
AGGTGCACGTGCGTTG
TGGCGCACGTGTTTGT
AGTGTCACGTGCGGCG

Relative binding free energy, 0.669 kJ/mol:
GGTTGCACGTGACGAG
GAGATCACGTGTGTTT
AGGCACACGTGAGTGG
TTGGACACGTGGAGTT
AGTATCACGTGGCAGT
ATCATCACGTGGAAGG
ATGGCCACGTGAGAGG
GGAATCACGTGTTGCG

Relative binding free energy, 0.586 kJ/mol:
TGACGCACGTGTGATT
GGGTACACGTGGAGGC
ATGGTCACGTGTAATT
TTTTCCACGTGGAATT

Relative binding free energy, 0.46 kJ/mol:
CATTTCACGTGGGGCT
CGAATCACGTGGTATG
TTGCTCACGTGGGCTA
ACGGTCACGTGTGGGA
TGGGACACGTGTGACA

Relative binding free energy, 1.17 kJ/mol:
TAATTCACGTGTGCTT

Relative binding free energy, 0.0418 kJ/mol:
TGTGTCACGTGGCGAG
AGGTCCACGTGTGTTG
CTAAACACGTGGTGGT
TGAAACACGTGGTGTA
GGGGGCACGTGTGGGT
CGGTACACGTGGTGGG
GGCAGCACGTGGAGCG
GATGGCACGTGGAATA
TGGTGCACGTGGTAAT

Relative binding free energy, 1.51 kJ/mol:
AAATTCACGTGTTTTC

Relative binding free energy, -0.209 kJ/mol:
GTGCGCACGTGTTGGG
ATACGCACGTGTGGTA
GTGGTCACGTGCTCTG

Relative binding free energy, 0.753 kJ/mol:
GGAGTCACGTGCGAGG
CTGGACACGTGAGGGA
AAGGTCACGTGTGATA
TTGGACACGTGAGCTT

Relative binding free energy, 1.55 kJ/mol:
CAATTCACGTGTGTGG

Relative binding free energy, -0.293 kJ/mol:
TTTAGCACGTGGAATA

Relative binding free energy, 0.209 kJ/mol:
GTTAGCACGTGGTTCA
CTCTACACGTGTGTGT
CGTGTCACGTGTATGG
GAGTGCACGTGGAGGT
TGTGTCACGTGGTAGT
TATGTCACGTGGGAAG
AGAGGCACGTGGACGT

Relative binding free energy, 0 kJ/mol:
AGTTCCACGTGCGTGG
TTTAGCACGTGTTCGC
TGTACCACGTGTGGCG
CTTGTCACGTGGTAGT
TTGGACACGTGTGGCA
AAGGGCACGTGTGGGA
GTAAACACGTGTTTGG
TTCGTCACGTGGGACT
AAGTGCACGTGTGAAT

Relative binding free energy, 1.63 kJ/mol:
GTGCACACGTGAGGTG
GCGGACACGTGATGTT
TTTATCACGTGAATGT
GTGTTCACGTGGAAGT

Relative binding free energy, 0.795 kJ/mol:
TTTTTCACGTGTATAC
TTGTCCACGTGATTGT

Relative binding free energy, 0.293 kJ/mol:
AAATACACGTGTTTGT
TATACCACGTGATTGT
GTGTGCACGTGTAAGG
CGGGTCACGTGCGTTG
GATTGCACGTGTAGGT

Relative binding free energy, -0.628 kJ/mol:
GGGGGCACGTGGGACT
CTGTGCACGTGGGCGA
TGTCGCACGTGGTCGG
TATCACACGTGGGTGT

Relative binding free energy, 1.26 kJ/mol:
GATGTCACGTGAGTGG

Relative binding free energy, -0.167 kJ/mol:
TGAGGCACGTGCTGCT
TGTTGCACGTGCCAGG
CGTAACACGTGTGGGT
